# Assay results taken from PubChem BioAssay AID1347417 (National Center for Advancing Translational Sciences (NCATS), 2020).
# About 5,300 (4.4%) of roughly 120,000 compounds were called active. The shares of active, inactive and inconclusive entries below differ from those in the screen. Calls follow the shape of the dose curve; as a rule, active = well fitted inhibition curve with a large enough effect; inconclusive = small, poorly fitted or top-dose-only effect; inactive = no such curve, though single readings can be large or run the other way. A potency beside an inconclusive call is a rough fit, not a confirmed value.
# Assay: qHTS Primary assay for Inhibitors of Plasmodium falciparum Dd2 growth in vitro; also: nearly all actives have a fitted effect of over 65% in size;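 as to activity, negative = inhibition: plate controls were DMSO vehicle for no effect and reference drug for full effect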
# Settings: P. falciparum Dd2 growth, SYBR Green, 72 h; activity, negative = inhibition: at 28.9 µM (top of the series) unless noted; series mostly up to 28.9 µM
# Procedure, shortened: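 Readout: SYBR Green fluorescence, 485 nm excitation, 535 nm emission, after ~16 h lysis at 37C. Before that, Dd2-infected red cells (2.5% hematocrit) grew 72 h with compound, 29 uM top final concentration.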
# Potency is read from the fitted curve at half-maximal effect; tags tell the direction and shape of the fitted curve.
Structure (SMILES),Potency,"activity, negative = inhibition",outcome
COc1ccc(NC(=O)N2CCc3c(sc4c3CCCC4)C2c2ccccc2OC)cc1 (stereo unspecified),"inconclusive: 6.31 µM [inhibitor, partial curve, poor fit]",,
OCC1CN(C2CCC2)CC12CCN(Cc1ccc(Br)o1)CC2 (stereo unspecified),"inconclusive: 5.62 µM [inhibitor, partial curve]",,
COc1ccc(-c2nc3scc(CCNS(=O)(=O)c4ccccc4F)n3n2)cc1,,inactive: -10.8%,
CN(C)CC1(O)CCCN(Cc2c(Cl)cncc2Cl)C1 (stereo unspecified),,inactive: -20.3%,
CCCCC1CN(c2cccc(-c3ccccc3)c2)C(=O)CN1C(=O)c1ncoc1C (stereo unspecified),"inconclusive: 12.6 µM [inhibitor, partial curve, poor fit]",,
CCOc1cc(=O)n2c(c1C(=O)Nc1ccc(OC)c(OC)c1)CCCC2,,inactive: 17.8%,
O=C(Cc1cccc(F)c1)N1CC(Oc2ccc(-c3nc(-c4ccccc4)no3)cc2)C1,,inactive: 18.9% [at 5.79 µM],
Cc1cc(C(F)(F)F)n2ncc(C(=O)N3C[C@@H](C)[C@](O)(C4CCC4)C3)c2n1,active: 14.1 µM,,
Cc1ccc(Cn2cc(C(=O)c3ccc(F)cc3)c(=O)c3cc4c(cc32)OCO4)cc1,"inconclusive: 12.6 µM [inhibitor, single point]",,
Cc1nc(-c2ccc(F)cc2)n(Cc2ccc(F)cc2F)c(=O)c1CCO,,,inactive
CCOC(=O)Cn1c(=O)n(CC2CCCO2)c2nc(-c3ccccc3F)nc(C(N)=O)c21 (stereo unspecified),"inconclusive: 10 µM [inhibitor, partial curve, poor fit]",,
Cn1nc(C(=O)N2CCC3(CC2)CC(OCC2CC2)CCO3)c2ccccc21 (stereo unspecified),"inconclusive: 3.16 µM [inhibitor, single point]",,
COc1ccc(CNC[C@H]2COCc3nc4cc(C(F)(F)F)ccc4n32)cn1,"inconclusive: 0.316 µM [inhibitor, full curve]",,
COC(=O)c1ccc(NC(=O)CCc2c(C)nc3c(-c4ccccc4)c(C)nn3c2C)cc1,"inconclusive: 7.94 µM [inhibitor, partial curve, poor fit]",,
COc1ccc(-n2c(C)c(C(C)=O)c3cc(OC(=O)c4ccc(C)cc4)ccc32)cc1,"inconclusive: 7.94 µM [inhibitor, single point]",,
CCOC(=O)c1ccc(OCC2c3cc(OC)c(OC)cc3CCN2C(=O)c2ccc(S(=O)(=O)N3CCCC3)cc2)cc1 (stereo unspecified),active: 11.2 µM,,
c1ccc(-c2nc(C3CC3)no2)c(OC2CCNC2)c1 (stereo unspecified),"inconclusive: 2.51 µM [inhibitor, partial curve, poor fit]",,
COc1ccc(CNC(=O)CC[C@]23CC[C@](C)(O)C[C@H]2C(C)(C)C[C@@H]3NC2CCOCC2)cc1,"inconclusive: 10 µM [inhibitor, partial curve, poor fit]",,
CCc1nc2c(c(-c3ccc(Cl)cc3)n1)CN(C(=O)OC)CC2,"inconclusive: 20 µM [inhibitor, single point]",,
CCC1=Nc2cc(C(=O)NCC(C)c3ccccc3)ccc2Sc2ccc(C)cc21 (stereo unspecified),active: 11.2 µM,,
CCN(CC)CCNC(=O)c1cc(-c2ccc(Br)s2)nc2ccccc12,active: 11.2 µM,,

Structure (SMILES),Potency,"activity, negative = inhibition",outcome
COC(=O)C1=CN(CC(=O)NCc2ccccc2)S(=O)(=O)N=C1C,,,inactive
Cc1nc(-n2nc(C)c(Cc3ccc4c(c3)OCO4)c2C)sc1C(=O)Nc1cccc(Cl)c1,"inconclusive: 0.398 µM [inhibitor, full curve, poor fit]",,
Cc1ccc(C(=O)NCc2nnc3cc(-c4nc(C(C)C)no4)ccn23)cc1F,,inactive: -11.1%,
C[C@@H](NC(=O)c1ccccc1)c1onc(-c2cccnc2)c1C(=O)O,,inactive: -4.73% [at 44.1 µM],
COCCn1c(C)cc(C(=O)N2CCCC(Cc3noc(-c4cnccn4)n3)C2)c1C (stereo unspecified),"inconclusive: 1.58 µM [inhibitor, partial curve, poor fit]",,
Cc1nn(C)c(C)c1-c1ccnc(NCCC2(O)CCN(C)CC2)n1,"inconclusive: 3.98 µM [inhibitor, single point]",,
COc1ccc(CN2Cc3[nH]cnc3C[C@H]2c2nc(-c3ccccc3)no2)cc1,"inconclusive: 2.82 µM [inhibitor, full curve]",,
O=C(NCCc1nc2ccccc2n1Cc1ccccc1)c1ccco1,"inconclusive: 10 µM [inhibitor, single point]",,
COCCN1Cc2nc(Nc3ccc(F)c(Cl)c3)ccc2OCC1=O,"inconclusive: 2.82 µM [inhibitor, full curve, poor fit]",,
CCN(CC)CCNC(=O)C1CCN(c2cc(C)nc3c(-c4ccc(Cl)cc4)c(C)nn23)CC1,"inconclusive: 0.501 µM [inhibitor, partial curve, poor fit]",,
O=C(C[C@H]1NC(=O)c2ccccc2NC1=O)NCCc1c[nH]c2ccc(F)cc12,,inactive: -18.7%,
COc1ccc(Cn2c(=O)n(-c3ccccc3C)c(=O)c3c4c(sc32)CN(C(C)=O)CC4)cc1,"inconclusive: 17.8 µM [inhibitor, single point]",,
COc1cc2c(cc1OCc1ccccc1)N(C(=O)c1cc3ccccc3[nH]1)CC21CCN(C)CC1,"inconclusive: 0.158 µM [inhibitor, full curve, poor fit]",,
Cc1ccc(C(=O)N2CCC3(CC2)CC(N(Cc2ccccc2)C2CC2)CCO3)cc1 (stereo unspecified),,,inactive
Cc1nc([C@H]2CCN(Cc3sccc3C)C[C@H]2NC(=O)C2CCOCC2)n[nH]1,,,inactive
CCCN(CCC)CCNC(=O)c1cc2c(-c3ccc(Cl)cc3)nn(C)c2s1,"inconclusive: 0.224 µM [inhibitor, full curve, poor fit]",,
CNCCN1C(=O)CC[C@H]2CN(c3ncc(Cl)cc3F)CC[C@H]21,"inconclusive: 11.2 µM [inhibitor, partial curve, poor fit]",,
Cc1cnc(C(=O)NC2C[C@H]3CC[C@@H](C2)N3C(=O)c2ccc(C)s2)cn1 (stereo partly specified),,,inactive
COc1ccc(-c2cc3c(=O)n(CCNC(=O)c4cccc5[nH]ccc45)ccn3n2)cc1,"inconclusive: 1.12 µM [inhibitor, partial curve, poor fit]",,
CN1CC(c2ccccc2)CC2(CCN(C(=O)c3ccccc3)CC2)C1 (stereo unspecified),,,inactive
